From the supplement of paper PMC3334620
In all, about 33,000 sequences were measured (“E-score (-0.5 to 0.5)”: median about -0.021, highest 2% from about 0.32 on). The list shows a part of the results.

Molecular target: T1, Zap1 (UniProt P47043)
T1 sequence: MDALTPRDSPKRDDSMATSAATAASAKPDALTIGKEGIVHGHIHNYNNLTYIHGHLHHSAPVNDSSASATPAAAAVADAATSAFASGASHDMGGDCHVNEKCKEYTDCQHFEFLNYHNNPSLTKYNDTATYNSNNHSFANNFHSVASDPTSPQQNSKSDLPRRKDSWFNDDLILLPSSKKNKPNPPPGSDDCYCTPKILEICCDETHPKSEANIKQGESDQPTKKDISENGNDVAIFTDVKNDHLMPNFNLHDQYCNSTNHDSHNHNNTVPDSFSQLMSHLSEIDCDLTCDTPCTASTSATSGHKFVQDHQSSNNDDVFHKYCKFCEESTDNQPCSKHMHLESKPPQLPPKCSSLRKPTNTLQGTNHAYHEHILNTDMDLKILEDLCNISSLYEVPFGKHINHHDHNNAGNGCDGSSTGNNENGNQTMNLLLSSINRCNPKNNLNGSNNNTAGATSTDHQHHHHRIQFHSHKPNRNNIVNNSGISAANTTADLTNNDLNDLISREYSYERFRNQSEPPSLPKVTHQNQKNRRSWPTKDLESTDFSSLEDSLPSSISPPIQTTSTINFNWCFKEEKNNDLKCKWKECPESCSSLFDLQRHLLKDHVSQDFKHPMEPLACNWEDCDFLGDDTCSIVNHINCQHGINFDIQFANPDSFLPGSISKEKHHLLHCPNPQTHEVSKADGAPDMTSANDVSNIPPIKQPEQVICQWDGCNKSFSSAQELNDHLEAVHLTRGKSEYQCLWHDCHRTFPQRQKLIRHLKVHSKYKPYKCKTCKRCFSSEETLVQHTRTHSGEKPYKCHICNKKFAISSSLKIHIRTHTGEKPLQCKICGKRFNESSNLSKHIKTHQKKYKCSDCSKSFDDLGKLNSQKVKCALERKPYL
Assay: PBM E-score (8-mer binding enrichment) (E-score (-0.5 to 0.5)); higher = stronger / more preferred TF binding; most listed sequences are background and not binding sites
Conditions: protein concentration: 200 nM; construct: GST-full length
In short: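 E-scores (a modified Wilcoxon-Mann-Whitney statistic) were assigned by the Universal PBM Analysis Suite to every ungapped eight-base word pooled with its reverse complement. The input came from universal all-10-mer Agilent arrays made double-stranded by primer extension and probed with GST-tagged yeast transcription factors at about 100-200 nM. Fluorescent anti-GST detected bound protein, and masliner normalised the scans.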

Row | Sequence | PBM E-score
1 | AGGTCAAT | 0.167
2 | CAGCCAAC | 0.0499
3 | CTATATAA | 0.24
4 | AGCGGTAT | 0.156
5 | CAGAACTG | 0.116
6 | AATATTCT | 0.0276
7 | CGGACCCA | 0.195
8 | AAGGCAGG | -0.288
9 | AACGTGAG | -0.0273
10 | ACTGTACA | -0.149
11 | TAAAAAAA | 0.223
12 | GGTTGAGA | 0.0557
13 | TATCTGGA | -0.169
14 | ACTTCTAC | -0.118
15 | AGCGTGTC | -0.204
16 | CGCCGACA | -0.193
17 | CACGCCGC | -0.246
18 | ATTCCTAG | 0.0113
19 | ACGGCTTG | -0.0905
20 | CGGTGTGC | -0.172
21 | ACACCAAT | 0.159
22 | ACCAGGAT | 0.03
23 | CCTCCGGC | 0.0186
24 | CTATATGA | 0.0854
25 | TCCTGACA | -0.0691

Row | Sequence | PBM E-score
26 | CCTCTACG | 0.141
27 | GCAGATCA | -0.129
28 | AAACCAAC | 0.196
29 | ATTATAGG | 0.062
30 | ATCGTATA | 0.0132
31 | AATTACAC | -0.0381
32 | CAAGTGCA | -0.145
33 | CAATAAGG | 0.0455
34 | TAATCAAA | 0.105
35 | GCAATTAC | 0.109
36 | AAACCTAT | 0.164
37 | ATGGCGGC | -0.185
38 | ACTGACCA | 0.109
39 | AGGCAACA | -0.122
40 | TCGCACAA | 0.0215
41 | GGGCGGTA | 0.0148
42 | AGGCGGAA | -0.15
43 | ATGTAGGC | -0.212
44 | ATACATTG | -0.0183
45 | GCGGACTA | -0.057
46 | CGAATTAG | 0.0338
47 | CACCTTCG | -0.0483
48 | GGGTATAC | 0.281
49 | TCGCTGAA | 0.14
50 | AACGTGCG | -0.101

Row | Sequence | PBM E-score
51 | ATAAGTGG | 0.066
52 | CGCACCAC | -0.0902
53 | CTACTTCA | -0.177
54 | AAAATCCG | -0.0915
55 | ATACTATA | 0.197
56 | AAAATCGA | 0.108
57 | GCGTCTGA | -0.0107
58 | CTGAGGCA | -0.194
59 | CAACTCAA | 0.092
60 | CGATGCGC | -0.129
61 | CGTAAAAG | 0.193
62 | AACGATAT | 0.125
63 | CATTGAGC | -0.208
64 | TAGTCAAA | 0.0462
65 | TTACGGAA | 0.0455
66 | CGATCTTA | -0.132
67 | CGAAGAGC | -0.0671
68 | ACGGTCCT | -0.0875
69 | CTTAAGAC | -0.0538
70 | ATGCGCTA | -0.119
71 | CCGCGTAA | 0.0461
72 | ATGATGGG | -0.129
73 | ACGAGACG | -0.285
74 | AAACCCAT | 0.253
75 | GTTTGCCA | 0.00442

Row | Sequence | PBM E-score
76 | AGTGCCGG | -0.0913
77 | AACCGTGT | 0.22
78 | ATAGCAAG | -0.0161
79 | CACTAAGC | -0.06
80 | AGCTTGAT | -0.194
81 | GCGTCAAC | -0.182
82 | GTTAGTCA | -0.0655
83 | ACTGCACC | 0.0246
84 | CACGCAAG | 0.0766
85 | CGGGGACA | -0.0979
86 | CGATCTCC | -0.244
87 | TTTAGAAA | 0.105
88 | CGGTTTAC | -0.028
89 | GCTCTATA | -0.126
90 | AGTCCTGA | -0.0542
91 | AATGGACT | -0.0512
92 | CTGACTGA | -0.217
93 | AAAGTGGG | 0.00103
94 | AATTATAT | 0.19
95 | CGCGCGAG | 0.107
96 | AGAACAAA | 0.257
97 | CAGCTAGC | -0.206
98 | AATGGGAT | -0.225
99 | CACGAGAG | -0.137
100 | GACCTGAA | 0.132

Row | Sequence | PBM E-score
101 | TCAGCTAA | 0.0829
102 | CTAATCTC | -0.108
103 | CGCATGTC | -0.173
104 | GATACATA | -0.0042
105 | CGGAACCG | 0.169
106 | CCTTCCCC | -0.21
107 | CGTAACCA | 0.441
108 | ACACCAGA | 0.0396
109 | AAACGTTA | 0.00407
110 | CCAAGGGC | 0.0008
111 | GCCGACAA | -0.0426
112 | ATCTTTGA | -0.0224
113 | CTTCAGCA | -0.157
114 | AAGACTAG | -0.27
115 | GTCTTGAA | -0.0661
116 | AAGCCCGT | -0.309
117 | TAAAAACA | 0.127
118 | GCACAGCC | -0.115
119 | ACCCGATG | 0.159
120 | CCAAACGC | 0.0262
121 | TGGGTAAA | 0.0903
122 | AATGGGAG | -0.174
123 | CGGCGACA | -0.195
124 | ACGTTGTG | 0.0775
125 | ACGTCTCC | -0.235

Row | Sequence | PBM E-score
126 | GAGAAATC | -0.0624
127 | GACTCCGA | -0.203
128 | AATAAACA | 0.127
129 | AGGTGGGA | -0.136
130 | GGCATATA | 0.013
131 | ACCGCTGA | 0.13
132 | ACCTCGAC | 0.218
133 | CTAGGGTA | 0.411
134 | GTTCCAAA | 0.267
135 | AGGACACC | 0.25
136 | ATTCTATC | -0.0944
137 | AATCGGTG | -0.238
138 | AATAGCAG | -0.164
139 | GATCATGC | -0.0731
140 | CGAGGAGA | -0.266
141 | ATCTGTGC | -0.175
142 | ACAGCGCG | 0.0244
143 | AAGGCAAG | -0.139
144 | AGGAAGTC | -0.137
145 | AAGTCAGT | -0.08
146 | AGTAGATA | 0.17
147 | CGCGCCTC | -0.128
148 | AGTAATGA | 0.0711
149 | GCCCGACC | -0.125
150 | AGTTGCCC | -0.0517

Row | Sequence | PBM E-score
151 | AGCCCACC | 0.028
152 | GGGAAAAA | 0.00088
153 | ACATTGAT | 0.0783
154 | CAGAGGTC | 0.286
155 | CTGATTCC | -0.071
156 | GAGGGCGA | -0.283
157 | AAGCACGA | -0.12
158 | CACGCCAC | -0.234
159 | CGTCACGC | -0.019
160 | AAAACAAA | 0.271
161 | AATAGTTG | 0.176
162 | GCATTTAC | -0.156
163 | CCCGATCC | -0.148
164 | ACACCAAA | 0.302
165 | GCACGTGC | -0.193
166 | GCTGGAAC | -0.109
167 | CGGATTCC | -0.0353
168 | AGGTAACC | 0.441
169 | CCGTCTGC | -0.145
170 | AGCCAAAT | -0.0282
171 | AAATGTCG | -0.106
172 | TATTACAA | 0.133
173 | ATGCGGTA | 0.213
174 | ACAACGAG | 0.0286
175 | AATCTCAT | 0.0935

Row | Sequence | PBM E-score
176 | CAGTCACA | -0.0935
177 | CTAGGGGA | 0.125
178 | ACTCACGA | -0.0773
179 | ATTTTTAG | 0.0742
180 | CTCGACAG | -0.22
181 | CACAATCC | 0.166
182 | AAGGAGCA | -0.227
183 | CTGGTGTC | 0.00053
184 | TCGTCGCA | -0.0866
185 | AACGAACT | -0.0922
186 | CGGAAAGA | -0.00377
187 | GAGCTGCC | -0.318
188 | CCAAACTA | 0.206
189 | GACACTGC | 0.0132
190 | ATCGGTTG | 0.0684
191 | ATGAGGCG | -0.268
192 | CTGGGGGC | -0.276
193 | ACGATAGT | -0.0206
194 | TGATCACA | 0.245
195 | GGAGTTCA | -0.131
196 | AGCAATGA | -0.118
197 | AGCAACGG | 0.00738
198 | CCTACGTA | -0.211
199 | AAATGGCG | -0.0647
200 | CTGGATCA | -0.136

Row | Sequence | PBM E-score
201 | CGAATTCA | -0.0127
202 | TAGAACTA | -0.034
203 | CGGCAATA | -0.0167
204 | AGCCAGGC | -0.246
205 | ATCCTACC | -0.0654
206 | CTCGCAGA | -0.219
207 | AGCCGGTG | -0.0008
208 | AGGTGATC | 0.206
209 | GAGGGTAC | 0.374
210 | ACGTCCAT | 0.00455
211 | ACTAATGA | 0.0348
212 | GGAATTGA | 0.00558
213 | ATTGAAAC | 0.115
214 | TCCGCTCA | -0.267
215 | CACTCGTA | -0.156
216 | ACGTATTA | 0.168
217 | GGGTTACA | 0.468
218 | GCACCTTA | 0.112
219 | CAGGATTC | -0.118
